Assay results as given in PubChem BioAssay AID488969 (Vanderbilt High Throughput Screening Facility, 2010).
In all, about 110,000 compounds were measured (“z-score”: median about -0.1, highest 2% from about 2 on). This is one part of the list.

target: Metabotropic glutamate receptor 8 (Rattus norvegicus) (UniProt P70579); assay: mGluR8 Gi/Go-coupled signaling modulation – cell-based, rat, thallium flux, HTS, primary screen (AID 488969); conditions: HEK293 rat mGluR8, GIRK (G protein-gated inwardly rectifying potassium channel) thallium flux, FluoZin2; at 10 µM; stronger effect = higher value; submaximal glutamate (EC20) added with thallium
Chain of UniProt P70579 (P70579 whole entry, looked up): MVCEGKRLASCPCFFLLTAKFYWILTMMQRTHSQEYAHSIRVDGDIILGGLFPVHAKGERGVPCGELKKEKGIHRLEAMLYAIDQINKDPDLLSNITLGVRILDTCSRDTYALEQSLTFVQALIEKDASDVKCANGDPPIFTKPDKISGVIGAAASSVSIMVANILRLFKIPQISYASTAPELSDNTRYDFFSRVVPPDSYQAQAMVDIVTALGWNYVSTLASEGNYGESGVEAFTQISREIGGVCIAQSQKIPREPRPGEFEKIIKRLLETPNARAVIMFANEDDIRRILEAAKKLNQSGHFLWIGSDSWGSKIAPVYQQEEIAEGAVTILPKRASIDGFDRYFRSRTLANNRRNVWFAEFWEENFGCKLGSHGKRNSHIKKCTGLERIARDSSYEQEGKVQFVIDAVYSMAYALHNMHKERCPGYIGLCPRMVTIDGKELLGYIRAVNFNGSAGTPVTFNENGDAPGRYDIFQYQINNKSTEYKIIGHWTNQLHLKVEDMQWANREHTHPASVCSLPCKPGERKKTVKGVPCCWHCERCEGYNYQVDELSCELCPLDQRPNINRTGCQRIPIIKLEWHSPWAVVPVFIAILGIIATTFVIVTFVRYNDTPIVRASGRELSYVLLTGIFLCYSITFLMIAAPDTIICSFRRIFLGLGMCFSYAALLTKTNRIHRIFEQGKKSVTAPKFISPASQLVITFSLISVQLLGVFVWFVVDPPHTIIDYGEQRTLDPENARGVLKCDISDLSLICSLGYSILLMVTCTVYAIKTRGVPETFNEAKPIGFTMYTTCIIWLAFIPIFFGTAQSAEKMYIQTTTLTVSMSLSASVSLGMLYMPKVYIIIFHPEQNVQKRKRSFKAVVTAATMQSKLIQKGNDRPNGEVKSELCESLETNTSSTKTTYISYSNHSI

Compound | z-score
O=C(CN1CCc2ccccc2C1)NCc1ccco1 | 0.133
COc1ccc(O)c(C(=O)/C=C/c2cc3ccccc3o2)c1 | -0.139
COCCCNC(=O)Cn1cc(/C=C(\C#N)C(=O)N2CCN(c3ccccc3)CC2)c2ccccc21 | 0.0645
Cc1cccc(NC(=O)c2cnc3sccn3c2=O)c1C | 0.631
Nc1ccc2nc(-c3cc(Cl)c(N)c(Cl)c3)[nH]c2c1 | -0.984
CCCCOc1ccc(C(=O)NCc2ccncc2)cc1 | -0.118
CCOC(=O)N1CCN(C(=O)c2ccc(CS(=O)(=O)c3ccccc3OC)o2)CC1 | -0.139
NS(=O)(=O)c1ccc(CNC(=O)CCC2CCCCC2)cc1 | 0.528
COc1ccc(NC(=O)C(=O)NCCO)cc1Cl | -0.116
O=C(CSc1nnnn1Cc1ccccc1)N1CCN(c2ccccc2)CC1 | -0.22
O=c1[nH]c(CN2CCN(c3ccc([N+](=O)[O-])cc3)CC2)nc2ccsc12 | 0.066
COCCn1nnnc1C(c1cc2ccc(C)cc2[nH]c1=O)N(Cc1ccco1)Cc1cccs1 (stereo not given) | -0.191
CCOC(=O)c1c(C)nc2sc(C(N)=O)c(N)c2c1-c1ccccc1 | -1.25
CCSc1nc2[nH]ncc2c(=O)[nH]1 | -0.145
Cc1nnc(SCCn2c(N(C)Cc3ccccc3)nc3c2c(=O)n(C)c(=O)n3C)s1 | -0.304
CCOC(=O)Cn1cnc2c(C#N)c3n(c2c1=O)CCCCC3 | 0.0642
CCCCNC(=O)c1onc(CSc2ccc(C(C)C)cc2)c1C(=O)O | -0.347
COC(=O)N1CCN(c2ccc(OC)cc2)CC1 | -0.134
COc1ccccc1CN1C(=O)CCC1(C)C(=O)NCc1cccnc1 (stereo not given) | 0.855
O=C(c1cc2nc(-c3ccco3)cc(C(F)(F)F)n2n1)N1CCN(c2ccccn2)CC1 | -0.996
CN(c1ccc(C(=O)NCc2ccco2)cc1)S(C)(=O)=O | -0.288
O=C(CSc1ccc2nnc(-c3ccccn3)n2n1)Nc1ccc2c(c1)OCCO2 | -0.598
Cc1cc(-n2nnc3ccccc32)nc2ccccc12 | 0.00551
COc1cc(C2C(C#N)=C(N)Oc3cc(N(C)C)ccc32)cc2c1OCO2 (stereo not given) | -0.326

Compound | z-score
CC(C)NS(=O)(=O)c1ccc(CCC(=O)NCc2ccc3c(c2)OCO3)cc1 | 0.0548
O=C(COC(=O)c1cccc([N+](=O)[O-])c1)NCc1ccc2c(c1)OCO2 | -0.0402
Cc1c(Cl)c(C(=O)Nc2nc3ccccc3n2CCN2CCCCC2)nn1C | -0.0503
COC(=O)C(C)Sc1nc2c(c(=O)[nH]c(=O)n2C)n1CCC(C)C (stereo not given) | -1.33
CN1C=C(C(F)(F)F)C=C/C1=C(\C#N)c1nnc2n1CCCCC2 | -1.27
CCC(C)n1ncn(-c2ccc(N3CCN(c4ccc(OC)cc4)CC3)cc2)c1=O (stereo not given) | -0.724
CN(C)CCNC(CC(=O)Nc1ccc(Cl)c(Cl)c1)C(=O)O (stereo not given) | 0.422
COc1ccc(Cl)cc1NC(=O)CN(C)C(C)C(=O)NCC1CCCCC1 (stereo not given) | -0.369
CCC(=O)Nc1ccccc1C(=O)C(=O)Nc1ccccc1 | -0.178
CC(=O)c1nc(N2C(=O)CC(Cc3ccccc3)C2=O)sc1C (stereo not given) | -0.333
C(=N\Nc1nc2ccccc2s1)/c1ccco1 | 0.0919
Cc1ccc(-c2nc3ccsc3c(=O)o2)cc1 | -1.54
CCOc1ccc(C(=O)NC2CCN(C(=S)NCc3ccco3)CC2)cc1 | -0.0939
Cc1nn(Cc2c(Cl)cccc2Cl)c(C)c1NC(=O)CCCn1nc(C)c([N+](=O)[O-])c1C | -0.218
CC(=O)c1ccc(NC(=O)COC(=O)c2c3c(nc4ccccc24)/C(=C\c2cccs2)CCC3)cc1 | 0.0242
C/C(CC(=O)Nc1cccc2c1CCCC2)=N\NC(=O)c1cccc2ccccc12 | -0.483
CC1CCC2C(=O)N(c3ccc(C(=O)NCc4ccccc4)cc3)C(=O)C2C1 (stereo not given) | -0.51
CC(C)C(C)NC(=O)COc1ncnc2ccccc12 (stereo not given) | -0.0137
COc1ccc(C2CC(c3ccccc3)n3nnnc3N2)cc1 (stereo not given) | 0.842
CC(C)C(=O)Nc1ccc(C(=O)N2CCCCCC2)cc1 | 2.15
O=C(O)CNC(=S)N(Cc1ccco1)Cc1ccccc1Cl | -0.277
CNc1nc2cc([N+](=O)[O-])c([N+](=O)[O-])cc2nc1NC | 0.288
O=C1C2CC=CCC2C(=O)N1Cc1ccccc1 (stereo not given) | 0.693
Cc1nc(NC2=NCN(CCN3CCOCC3)CN2)nc2c(C)cccc12 | -0.131

Compound | z-score
CC(=O)OC1=Cc2c(ccc3ccc(=O)oc23)OC1(C)C | -0.074
CCC(C)[C@@H](NC(=O)OC(C)(C)C)c1nnc(S(=O)(=O)Cc2cccc(C)c2)o1 (stereo not given in full) | -1.26
O=C(COC(=O)/C=C/c1ccc(OC(F)F)cc1)Nc1ccc(S(=O)(=O)N2CCCC2)cc1 | -0.444
CCC(=O)NC(=S)Nc1cccc(Cl)c1N1CCCCC1 | 0.315
CCCCC(=O)NC1=NC(=O)C(C)(C)S1 | 0.316
O=C(NC(Cc1c[nH]c2ccccc12)C(=O)OCC(=O)c1cccc2ccccc12)c1cccs1 (stereo not given) | -0.308
CCn1nnnc1SCC(=O)Nc1nc(C)c(C)s1 | 0.0421
Cc1nc(-c2coc3cc(OCC(=O)O)ccc3c2=O)cs1 | -0.0655
O=C(CSc1nncs1)Nc1ccc2c(c1)OCCO2 | -0.308
Oc1ccccc1N=Nc1nc(-c2ccccc2)c(-c2ccccc2)[nH]1 | 0.115
COc1cc(/C=C/C(=O)OCC(=O)Nc2ccc3c(c2)OCCO3)ccc1O | -0.712
COc1ccc(C(c2c[nH]c3ccccc23)c2c[nH]c3ccccc23)cc1O | 0.143
CC(=O)Nc1ccccc1C(=O)C(=O)Nc1ccc(F)cc1 | -0.174
CC(=O)NC1C(=O)N(CC(C)C)c2ccccc21 (stereo not given) | -0.216
Cc1ccc(C(=O)COC(=O)CNC(=O)Cc2ccccc2)cc1[N+](=O)[O-] | -0.0605
COc1ccc(-n2nnnc2/C=C\Nc2ccccc2C(=O)c2ccccc2)cc1 | -0.171
CCC(=O)Nc1ccc(-c2nc(-c3ccccc3)n(CC(=O)N3CCCCC3)n2)cc1 | 0.92
Cn1c(NC(=O)C[n+]2cc(-c3ccc(Cl)c(Cl)c3)n3c2CCC3)cc(=O)n(C)c1=O | -0.217
COc1cc(OC)c2c(c1)C(=O)c1cc(OC)cc(OC)c1C2=O | -0.0118
CCOC(=O)CC(=O)CSc1nc2cc(C)ccc2cc1C | 0.9
CCOC(=O)C(C)Oc1ccc(C2NC(=O)NC(C)=C2C(=O)Nc2ccccc2C)cc1 (stereo not given) | -0.241
CCCn1c(SCC(=O)c2c(C)[nH]c(C)c2C(=O)OCC)nc2ccccc21 | -0.103
